# Results published in the supplement of paper PMC8728848.
# The list shows a part of the results.
# B1: DBA (Dolichos biflorus) (protein)
# chain: ANIQSFSFKNFNSPSFILQGDATVSSGKLQLTKVKENGFPLRFPSGRAFYSSPIQIYDKFTGAVASWATSFTVKISAPSKASFADGIAFALVPVGSEPRRNGGYLGVFDSDVYNNSAQTVAVEFDTLSNSGWDPSMKHIGIDVNSIKSIATVSWDLANGENAEILITYNAATSLLVVSLVHPSRRTSYILSERVDITNELPEYVGVGFSATTGLSEGYIETHDVLSWSFASRLPDDSTAEPLDLARYLVRNVL
# How the values were obtained:
# Test in all cases: glycan array binding signal (z-score within array); higher = stronger binding
# Conditions in all cases: glycan notation: IUPAC condensed, linker removed
# [1] = target: Neu5Ac(a2-3)[GalNAc(b1-4)]Gal(b1-4)GlcNAc(b1-3)GalNAc
# How it was run: (§1)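 Glycan array data came from 3228 arrays in the Consortium for Functional Glycomics database, and only arrays with an available protein sequence were kept. Glycan names were put into IUPAC-condensed notation, and columns mapping to the same glycan were averaged. The binding signal is a within-array Z-score, averaged across arrays of one protein sequence run at different concentrations or buffers and across linkers. A negative Z-score can be read as non-binding.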
# [2] = target: Neu5Ac(a2-3)[Neu5Ac(a2-6)]GalNAc
# How it was run: as §1
# Neu5Ac(a2-6)Gal = target: Neu5Ac(a2-6)Gal
# How it was run: as §1
# [3] = target: Neu5Ac(a2-6)Gal(b1-3)GlcNAc(b1-3)[Gal(b1-4)GlcNAc(b1-6)]Gal(b1-4)Glc
# How it was run: as §1
# Neu5Ac(a2-6)Gal(b1-4)Glc = target: Neu5Ac(a2-6)Gal(b1-4)Glc
# How it was run: as §1
# [4] = target: Neu5Ac(a2-6)Gal(b1-4)GlcNAc
# How it was run: as §1
# [5] = target: Neu5Ac(a2-6)Gal(b1-4)GlcNAc(b1-2)Man
# How it was run: as §1
# [6] = target: Neu5Ac(a2-6)Gal(b1-4)GlcNAc(b1-2)Man(a1-3)Man(b1-4)GlcNAc(b1-4)GlcNAc
# How it was run: as §1
# [7] = target: Neu5Ac(a2-6)Gal(b1-4)GlcNAc(b1-2)Man(a1-3)[Gal(b1-4)GlcNAc(b1-2)Man(a1-6)]Man(b1-4)GlcNAc(b1-4)GlcNAc
# How it was run: as §1
# [8] = target: Neu5Ac(a2-6)Gal(b1-4)GlcNAc(b1-2)Man(a1-3)[GlcNAc(b1-2)Man(a1-6)]Man(b1-4)GlcNAc(b1-4)GlcNAc
# How it was run: as §1
# [9] = target: Neu5Ac(a2-6)Gal(b1-4)GlcNAc(b1-2)Man(a1-3)[GlcNAc(b1-4)][Neu5Ac(a2-6)Gal(b1-4)GlcNAc(b1-2)Man(a1-6)]Man(b1-4)GlcNAc(b1-4)GlcNAc
# How it was run: as §1
# [10] = target: Neu5Ac(a2-6)Gal(b1-4)GlcNAc(b1-2)Man(a1-3)[Man(a1-6)]Man(b1-4)GlcNAc(b1-4)GlcNAc
# How it was run: as §1
# [11] = target: Neu5Ac(a2-6)Gal(b1-4)GlcNAc(b1-2)Man(a1-3)[Neu5Ac(a2-3)Gal(b1-4)GlcNAc(b1-2)Man(a1-6)]Man(b1-4)GlcNAc(b1-4)GlcNAc
# How it was run: as §1
# [12] = target: Neu5Ac(a2-6)Gal(b1-4)GlcNAc(b1-2)Man(a1-3)[Neu5Ac(a2-6)Gal(b1-4)GlcNAc(b1-2)Man(a1-6)]Man(b1-4)GlcNAc(b1-4)GlcNAc
# How it was run: as §1
# [13] = target: Neu5Ac(a2-6)Gal(b1-4)GlcNAc(b1-2)Man(a1-3)[Neu5Ac(a2-6)Gal(b1-4)GlcNAc(b1-2)Man(a1-6)]Man(b1-4)GlcNAc(b1-4)[Fuc(a1-6)]GlcNAc
# How it was run: as §1
# [14] = target: Neu5Ac(a2-6)Gal(b1-4)GlcNAc(b1-2)Man(a1-6)Man(b1-4)GlcNAc(b1-4)GlcNAc
# How it was run: as §1
# [15] = target: Neu5Ac(a2-6)Gal(b1-4)GlcNAc(b1-2)Man(a1-6)[Gal(b1-4)GlcNAc(b1-2)Man(a1-3)]Man(b1-4)GlcNAc(b1-4)GlcNAc
# How it was run: as §1
# [16] = target: Neu5Ac(a2-6)Gal(b1-4)GlcNAc(b1-2)Man(a1-6)[GlcNAc(b1-2)Man(a1-3)]Man(b1-4)GlcNAc(b1-4)GlcNAc
# How it was run: as §1
# [17] = target: Neu5Ac(a2-6)Gal(b1-4)GlcNAc(b1-2)Man(a1-6)[Man(a1-3)]Man(b1-4)GlcNAc(b1-4)GlcNAc
# How it was run: as §1
# [18] = target: Neu5Ac(a2-6)Gal(b1-4)GlcNAc(b1-2)[Neu5Ac(a2-6)Gal(b1-4)GlcNAc(b1-4)]Man(a1-3)[GlcNAc(b1-4)][Neu5Ac(a2-6)Gal(b1-4)GlcNAc(b1-2)[Neu5Ac(a2-6)Gal(b1-4)GlcNAc(b1-6)]Man(a1-6)]Man(b1-4)GlcNAc(b1-4)GlcNAc
# How it was run: as §1
# [19] = target: Neu5Ac(a2-6)Gal(b1-4)GlcNAc(b1-2)[Neu5Ac(a2-6)Gal(b1-4)GlcNAc(b1-4)]Man(a1-3)[GlcNAc(b1-4)][Neu5Ac(a2-6)Gal(b1-4)GlcNAc(b1-4)Man(a1-6)]Man(b1-4)GlcNAc(b1-4)GlcNAc
# How it was run: as §1
# [20] = target: Neu5Ac(a2-6)Gal(b1-4)GlcNAc(b1-2)[Neu5Ac(a2-6)Gal(b1-4)GlcNAc(b1-6)]Man(a1-6)[Neu5Ac(a2-6)Gal(b1-4)GlcNAc(b1-2)Man(a1-3)][GlcNAc(b1-4)]Man(b1-4)GlcNAc(b1-4)GlcNAc
# How it was run: as §1
# [21] = target: Neu5Ac(a2-6)Gal(b1-4)GlcNAc(b1-3)Gal(b1-3)GlcNAc
# How it was run: as §1
# [22] = target: Neu5Ac(a2-6)Gal(b1-4)GlcNAc(b1-3)Gal(b1-4)GlcNAc
# How it was run: as §1
# [23] = target: Neu5Ac(a2-6)Gal(b1-4)GlcNAc(b1-3)Gal(b1-4)GlcNAc(b1-2)Man(a1-3)[Neu5Ac(a2-6)Gal(b1-4)GlcNAc(b1-3)Gal(b1-4)GlcNAc(b1-2)Man(a1-6)]GalNAc
# How it was run: as §1
# [24] = target: Neu5Ac(a2-6)Gal(b1-4)GlcNAc(b1-3)Gal(b1-4)GlcNAc(b1-3)Gal(b1-4)GlcNAc
# How it was run: as §1
# [25] = target: Neu5Ac(a2-6)Gal(b1-4)GlcNAc(b1-3)Gal(b1-4)GlcNAc(b1-3)Gal(b1-4)GlcNAc(b1-2)Man(a1-3)[Neu5Ac(a2-6)Gal(b1-4)GlcNAc(b1-3)Gal(b1-4)GlcNAc(b1-3)Gal(b1-4)GlcNAc(b1-2)Man(a1-6)]GalNAc
# How it was run: as §1
# [26] = target: Neu5Ac(a2-6)Gal(b1-4)GlcNAc(b1-3)Gal(b1-4)GlcNAc(b1-3)GalNAc
# How it was run: as §1
# [27] = target: Neu5Ac(a2-6)Gal(b1-4)GlcNAc(b1-3)Gal(b1-4)GlcNAc(b1-3)[Neu5Ac(a2-6)Gal(b1-4)GlcNAc(b1-3)Gal(b1-4)GlcNAc(b1-6)]GalNAc
# How it was run: as §1
# [28] = target: Neu5Ac(a2-6)Gal(b1-4)GlcNAc(b1-3)Gal(b1-4)GlcNAc(b1-6)[Gal(b1-3)]GalNAc
# How it was run: as §1
# [29] = target: Neu5Ac(a2-6)Gal(b1-4)GlcNAc(b1-3)Gal(b1-4)[Fuc(a1-3)]GlcNAc(b1-3)Gal(b1-4)[Fuc(a1-3)]GlcNAc
# How it was run: as §1
# [30] = target: Neu5Ac(a2-6)Gal(b1-4)GlcNAc(b1-3)GalNAc
# How it was run: as §1
# [31] = target: Neu5Ac(a2-6)Gal(b1-4)GlcNAc(b1-3)[Neu5Ac(a2-6)Gal(b1-4)GlcNAc(b1-6)]GalNAc
# How it was run: as §1
# [32] = target: Neu5Ac(a2-6)Gal(b1-4)GlcNAc(b1-6)GalNAc
# How it was run: as §1
# [33] = target: Neu5Ac(a2-6)Gal(b1-4)GlcNAc(b1-6)[Gal(b1-3)GlcNAc(b1-3)]Gal(b1-4)Glc
# How it was run: as §1
# [34] = target: Neu5Ac(a2-6)Gal(b1-4)GlcNAc(b1-6)[Gal(b1-3)]GalNAc
# How it was run: as §1
# [35] = target: Neu5Ac(a2-6)Gal(b1-4)GlcNAc6S
# How it was run: as §1
binder,measurement,setting,value
B1,glycan array binding signal (z-score),[1],0.136
same,glycan array binding signal (z-score),[2],-0.163
same,glycan array binding signal (z-score),Neu5Ac(a2-6)Gal,-0.14
same,glycan array binding signal (z-score),[3],-0.106
same,glycan array binding signal (z-score),Neu5Ac(a2-6)Gal(b1-4)Glc,-0.09
same,glycan array binding signal (z-score),[4],-0.103
same,glycan array binding signal (z-score),[5],-0.127
same,glycan array binding signal (z-score),[6],-0.098
same,glycan array binding signal (z-score),[7],-0.116
same,glycan array binding signal (z-score),[8],-0.171
same,glycan array binding signal (z-score),[9],-0.164
same,glycan array binding signal (z-score),[10],-0.136
same,glycan array binding signal (z-score),[11],-0.131
same,glycan array binding signal (z-score),[12],-0.122
same,glycan array binding signal (z-score),[13],0.039
same,glycan array binding signal (z-score),[14],-0.188
same,glycan array binding signal (z-score),[15],-0.144
same,glycan array binding signal (z-score),[16],-0.094
same,glycan array binding signal (z-score),[17],-0.14
same,glycan array binding signal (z-score),[18],-0.046
same,glycan array binding signal (z-score),[19],-0.063
same,glycan array binding signal (z-score),[20],-0.191
same,glycan array binding signal (z-score),[21],-0.136
same,glycan array binding signal (z-score),[22],-0.12
same,glycan array binding signal (z-score),[23],-0.007
same,glycan array binding signal (z-score),[24],-0.1
same,glycan array binding signal (z-score),[25],0.11
same,glycan array binding signal (z-score),[26],-0.08
same,glycan array binding signal (z-score),[27],0.109
same,glycan array binding signal (z-score),[28],-0.032
same,glycan array binding signal (z-score),[29],-0.149
same,glycan array binding signal (z-score),[30],-0.09
same,glycan array binding signal (z-score),[31],-0.095
same,glycan array binding signal (z-score),[32],-0.037
same,glycan array binding signal (z-score),[33],-0.118
same,glycan array binding signal (z-score),[34],-0.042
same,glycan array binding signal (z-score),[35],-0.118
